PubChem BioAssay AID493208 (National Center for Advancing Translational Sciences (NCATS), 2011)
Out of some 44,000 compounds screened, about 340 (0.77%) were called active. Not shown: some 5% with an inconclusive outcome. The call rests on the fitted dose curve; in most records, active means well fitted inhibition curve with a large enough effect; inconclusive means small, poorly fitted or top-dose-only effect; inactive means flat fitted curve, though single readings scatter. The list shows a part of the results.

Assay: Acumen qHTS Assay for Inhibitors of the mTORC1 Signaling Pathway in MEF (Tsc2-/-, p53-/-) Cells: Sytravon;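 further: plate controls were DMSO for no effect and rapamycin for full effect; nearly all actives have a fitted effect of over 50% in size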
Conditions: phospho-rpS6 immunofluorescence/PI, 24 h; series mostly up to 38.3 µM; activity change, negative = inhibition: at the top concentration
Procedure, shortened: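 Cell-based qHTS: Tsc2-/- p53-/- MEF, 24 h cpd, 37 °C; fix/perm, anti-phospho-S6 Alexa-488 + PI; Acumen 488 nm scan; pS6/PI ratio, % positive cells; rapamycin 7.5 nM = inhibition ref; PI count = viability.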

Activity change, negative = inhibition, inactive:
CCOC(=O)N1CCN(C(=O)CN(c2cccc(Cl)c2)S(=O)(=O)c2ccccc2)CC1 -14.9%, CCCc1cc(=O)n2[nH]c(NC(=O)c3ccccc3Cl)nc2n1 0.362%, CCCN(C(=O)c1cc2c(=O)oc3ccccc3c2s1)c1cccc(Cl)c1 10.2%, COc1ccc(C2c3c(n(C)c4ccccc34)C(=O)N2CC(=O)Nc2cc(Cl)ccc2C)cc1 (stereo unspecified) -10.9%, O=C(Nc1ccccc1)N(Cc1cccs1)c1ccc(F)cc1 -8.37%, CCOC(=O)CSc1nc2cc3c(cc2c(=O)n1CCCC(=O)NCCc1ccc(OC)c(OC)c1)OCO3 0.544%, CCOC(=O)c1sc(N2C(=O)c3oc4ccc(C)cc4c(=O)c3C2c2ccccc2F)nc1C (stereo unspecified) 1.1%, CCc1cccc(NS(=O)(=O)c2ccc3c(c2)n(C)c(=O)c(=O)n3C)c1 2.96%, CCOC(=O)c1c(NC(=O)CSc2cn(CCNC(=O)c3ccc(OC)c(OC)c3)c3ccccc23)sc2c1CCCC2 10.6%, Cc1ccc(CNC(=O)CCCn2nc(C)c3c(C)n(-c4ccccc4)nc3c2=O)cc1 -5.77%, CCc1nonc1NC(=O)c1oc2ccc(C)cc2c1C -6.69%, CCOC(=O)c1ccc(-n2c(-c3ccc(C)cc3)c(C)n3c4c(=O)n(C)c(=O)n(C)c4nc23)cc1 7.38%, COc1ccc(-c2cc(-c3ccc4c(c3)NC(=O)CO4)nc3c2COc2ccc(F)cc2-3)cc1 7.36%, CN(C)c1ccc(-c2nc(-c3ccco3)no2)cc1[N+](=O)[O-] -0.208%, Cc1ccc(Cl)cc1-n1ncc2c(NCCCc3ccccc3)ncnc21 -14.8%, CCOc1ccccc1CNC(=O)c1ccc2c(c1)nc1n2CCCCC1 -2.63%, Cc1c(Nc2nc3ccccc3n3c(C)nnc23)cccc1C(=O)O 0.972%, CCN(CC)S(=O)(=O)c1ccc2c(c1)N(CC(=O)N1CCN(c3cccc(OC)c3)CC1)C(=O)CO2 3.22%, Cc1ccc(NC(=O)N2CC3CCCN3c3ccccc32)c(C)c1 (stereo unspecified) 7.76%, Fc1ccc(-n2ncc3c(N4CCCCCC4)ncnc32)cc1 5.68%, Cc1ccc(-c2cc(C(=O)N(Cc3ccc(C(C)(C)C)cc3)Cc3ccco3)no2)cc1 0%, CCc1cccc(C)c1NC(=O)CCn1c(=O)c2cccn2c2ccccc21 1.97%, CC(C)C(=O)NCC1(N(C)C)CCCCC1 0.357%, Cc1cc(N2CCN(c3cccc(C(F)(F)F)c3)CC2)n2nc(-c3ccccc3)nc2n1 -0.867%, Cc1ccc(NS(=O)(=O)c2cc3[nH]c(=O)c(=O)[nH]c3cc2C)cc1Cl -6.42%, CCOc1ccc(C(=O)Nc2c(C(=O)N3CCN(c4ccccc4F)CC3)oc3ccccc23)cc1 -7.25%, Cc1nc(SC(C)C(=O)Nc2ccccc2Cl)cc(-c2ccccc2)n1 (stereo unspecified) -11.5%, CCn1cc(C(=O)N2CCN(c3cc(C)ccc3C)CC2)c(=O)c2cc(S(=O)(=O)N3CCCCC3)ccc21 -1.88%, COc1ccc(N2CCN(Cc3cccn3-c3nnc(N4CCN(C5CCCCC5)CC4)s3)CC2)cc1 -0.593%, Cc1ccc([N+](=O)[O-])cc1S(=O)(=O)N1CCn2cccc2C1c1ccccc1 (stereo unspecified) -1.71%, CC(Oc1ccc(Br)cc1)C(=O)Nc1ncn[nH]1 (stereo unspecified) 6.21%, Cc1ccc2nc(-c3ccc(Cl)c(NC(=O)COc4ccc(C(C)C)cc4)c3)oc2c1 -6.15%, COc1ccc(NC(=O)CCc2nnc3n(Cc4ccccc4Cl)c(=O)c4ccccc4n23)cc1 0.48%, Cc1ccc(C)c(NC(=O)C2CCCN(S(=O)(=O)c3cn(C)cn3)C2)c1 (stereo unspecified) 0%, Cc1ccc(N2C(=O)N(Cc3cc(=O)n4ccccc4n3)c3ccccc3S2(=O)=O)cc1Cl -0.114%, CCOc1ccccc1CNC(=O)Cn1cc2c(n1)-c1c(oc(C(=O)N3CCCC3)c1C)CC2 -2.22%, Cc1ccc(S(=O)(=O)N2CCN(Cc3nc4ccc(C)cc4o3)CC2)cc1 2.28%, O=C(CS(=O)(=O)c1cccc2nsnc12)N1CCN(c2cccc(C(F)(F)F)c2)CC1 -10.6%, O=C(Cn1cc(S(=O)(=O)c2ccccc2)c(=O)c2cc3c(cc21)OCO3)Nc1ccc(Cl)cc1 3.56%, COc1ccc(Br)cc1CNC(=O)CCSCc1ccc(C)cc1 0.326%, CCNc1cc(N2CCN(C3CCCCC3)CC2)c2noc3c2c1C(=O)c1ccccc1-3 -0.0167%, CSc1ccc(CCNC(=O)c2ccc(-c3nc(COc4ccc(C)cc4)c(C)o3)cc2)cc1 -0.258%, CCOC(=O)CSc1nc2ccccc2c(=O)n1-c1cccc(C)c1 2.46%, O=C(O)Cc1ccc(NC2(c3ccccc3)C(=O)c3ccccc3C2=O)cc1 -10.1%, COc1ccc(C(=O)Nc2ccccc2SCc2cc(=O)c3cccc(C)c3[nH]2)cc1 -1.21%, COC(=O)c1ccccc1NC(=O)C1=C(C)C(=O)OC12CCCCCC2 0.781%, O=C(O)Cc1sc(Nc2ccccc2)nc1-c1ccccc1 -0.128%, COc1ccc(S(=O)(=O)NCCS(=O)(=O)N2CCN(c3ccccc3)CC2)cc1C -7.72%, COc1ccccc1CCNC(=O)C1CCN(c2nnc(-n3cccc3CNc3ccc(C)cc3)s2)CC1 -2.76%, COc1ccc(N2CCN(c3csc4ccc(Cl)cc4c3=O)CC2)cc1 0%, COc1ccc(Cl)cc1NC(=O)c1cn(C2CCCCC2)c(=O)c2c1c1ccccc1n2C -0.341%, Cc1c(C(=O)N(Cc2ccc(N(C)C)cc2)CC2CCCO2)oc2ccc(Cl)cc12 (stereo unspecified) -2.57%, CCOc1ccc(Nc2nc3cc(Cl)c(Cl)cc3nc2-n2nc(C)cc2C)cc1 3.17%, COc1ccc(CNC(=O)c2cc(-c3ccc(C)cc3)nc3n[nH]c(-c4ccc(Br)cc4)c23)cc1 0.349%, NS(=O)(=O)c1ccc(NC(=O)CN2C(=O)COc3ccc(Cl)cc32)cc1 -4.54%, Cc1ccc(C)c(S(=O)(=O)c2nnn3c2nc(NC(C)C)c2sccc23)c1 -9.91%, O=C(O)c1ccc2nc(-c3cc4cccc(O)c4oc3=O)[nH]c2c1 3.73%, CCOc1ccc(Nc2ncnc3c2nc2n3CCCC2)cc1 0.585%, CCOC(=O)c1c(C)[nH]c(C)c1S(=O)(=O)N1CCCC(C(=O)Nc2ccc(C)cn2)C1 (stereo unspecified) -3.57%, CCc1ccccc1Nc1nn2c(=O)c3ccc(C(=O)NCc4ccccc4OC)cc3nc2s1 -0.826%, CCN(c1ccccc1)c1ccc2cc(S(=O)(=O)N3CCCC3)ccc2n1 -5.88%
